{"source": "the supplement of paper PMC10498489", "note": "Hit rate of the full screen: of about 2,300 compounds, about 330 (14%) showed activity.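 Rule for the calls: active = median modified Z-score above 1.96; inactive = 1.96 or below.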 The list shows a part of the results, in another mix than the full data.", "data": [{"test_system": "HepG2 Srxn1-GFP reporter cells (+30 nM CDDO-Me)", "assay": "Srxn1-GFP intensity median modified Z-score relative to plate median; higher = stronger NRF2 / oxidative stress reporter activation, active = hit call of the paper", "details": "10 µM; exposure time: 24h", "how_it_was_run": "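The per-plate modified Z-score of GFP intensity, taken as a median across replicates, is what each value represents. Three replicate plates of HepG2 Srxn1-GFP BAC reporter cells were exposed for 24 h to an NRF2 activator at 30 nM combined with compound at 10 μM (≤0.1% DMSO). Cytoplasmic GFP per cell was read from confocal images, excluding any with under 100 cells, and scaling used 1.4826 × median absolute deviation.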", "values": [{"smiles": "COC(=O)c1cc(O)c(=O)c2c(O)c(O)ccc2c1", "note": "[euspeclibcmpd2277]", "Srxn1-GFP intensity median modified Z-score": "inactive: -0.815"}, {"smiles": "CC(C)CC(N)=O", "note": "[euspeclibcmpd931]", "Srxn1-GFP intensity median modified Z-score": "inactive: -0.219"}, {"smiles": "CN1CCN(C2=Nc3ccccc3Oc3ccc(Cl)cc32)CC1", "note": "[euspeclibcmpd702]", "Srxn1-GFP intensity median modified Z-score": "inactive: 0.0816"}, {"smiles": "COc1c2occc2cc2ccc(=O)oc12", "note": "[euspeclibcmpd192]", "Srxn1-GFP intensity median modified Z-score": "inactive: -0.198"}, {"smiles": "CC(=O)Oc1ccc2c(c1OC(C)=O)OCC1(O)Cc3c(cc(OC(C)=O)c(OC(C)=O)c3OC(C)=O)C21", "note": "(stereo unspecified) [euspeclibcmpd1391]", "Srxn1-GFP intensity median modified Z-score": "inactive: -0.46"}, {"smiles": "C[C@H](CCC(=O)O)[C@H]1CCC2C3C(=O)CC4CC(=O)CC[C@]4(C)C3CC(=O)[C@@]21C", "note": "(stereo partly specified) [euspeclibcmpd2057]", "Srxn1-GFP intensity median modified Z-score": "inactive: -0.197"}, {"smiles": "CN1C2CCC1CC(OC(=O)c1c[nH]c3ccccc13)C2", "note": "(stereo unspecified) [euspeclibcmpd1092]", "Srxn1-GFP intensity median modified Z-score": "inactive: -0.176"}, {"smiles": "O=C(O)c1cn(-c2ccc(F)cc2)c2cc(N3CCNCC3)c(F)cc2c1=O", "note": "[euspeclibcmpd743]", "Srxn1-GFP intensity median modified Z-score": "inactive: -0.431"}, {"smiles": "O=C(O)Cc1ccc(-c2ccccc2)cc1", "note": "[euspeclibcmpd926]", "Srxn1-GFP intensity median modified Z-score": "inactive: -0.403"}, {"smiles": "C=CC[S+]([O-])CC(N)C(=O)O", "note": "(stereo unspecified) [euspeclibcmpd2346]", "Srxn1-GFP intensity median modified Z-score": "inactive: -0.228"}, {"smiles": "CCOC(=O)OC(C)OC(=O)C1N2C(=O)C(NC(=O)C(N)c3ccccc3)C2SC1(C)C", "note": "(stereo unspecified) [euspeclibcmpd983]", "Srxn1-GFP intensity median modified Z-score": "inactive: 0.627"}, {"smiles": "Cc1ccc(N2CC(C(=O)NCCCn3ccnc3)CC2=O)c(F)c1", "note": "(stereo unspecified)", "Srxn1-GFP intensity median modified Z-score": "inactive: 1.07"}, {"smiles": "Oc1c(Br)cc(Br)c2cccnc12", "note": "[euspeclibcmpd1032]", "Srxn1-GFP intensity median modified Z-score": "active: 4.39"}, {"smiles": "COc1ccc(-c2coc3cc(O)ccc3c2=O)cc1", "note": "[euspeclibcmpd1410]", "Srxn1-GFP intensity median modified Z-score": "inactive: 0.0543"}, {"smiles": "CC(C)C(C)/C=C/C(C)C1CCC2C3=CC=C4CC(O)CCC4(C)C3CCC21C", "note": "(stereo unspecified) [euspeclibcmpd1597]", "Srxn1-GFP intensity median modified Z-score": "active: 5.02"}, {"smiles": "COc1cc2c(cc1OC)C1C(=O)c3c(O)cc4c(c3OC1CO2)C=CC(C)(C)O4", "note": "(stereo unspecified) [euspeclibcmpd1478]", "Srxn1-GFP intensity median modified Z-score": "inactive: 1.56"}, {"smiles": "CCOC(=O)N1CCC(=C2c3ccc(Cl)cc3CCc3cccnc32)CC1", "note": "[euspeclibcmpd600]", "Srxn1-GFP intensity median modified Z-score": "inactive: 0.62"}, {"smiles": "NC(=O)c1ccccc1O", "note": "[euspeclibcmpd265]", "Srxn1-GFP intensity median modified Z-score": "inactive: -0.32"}, {"smiles": "NC[C@@H]1O[C@H](O[C@@H]2[C@@H](CO)OC(O[C@@H]3[C@@H](O)[C@H](N)C[C@H](N)[C@H]3O[C@H]3O[C@H](CO)[C@@H](O)[C@H](O)[C@H]3N)[C@@H]2O)[C@H](N)[C@@H](O)[C@@H]1O", "note": "(stereo partly specified) [euspeclibcmpd563]", "Srxn1-GFP intensity median modified Z-score": "inactive: -0.129"}, {"smiles": "COc1ccc(C(=O)CCC(=O)O)c2ccccc12", "note": "[euspeclibcmpd2372]", "Srxn1-GFP intensity median modified Z-score": "inactive: -0.455"}, {"smiles": "CC1=C(/C=C/C(C)=C/C=C/C(C)=C/C=C/C=C(C)/C=C/C=C(C)/C=C/C2=C(C)CCCC2(C)C)C(C)(C)CCC1", "note": "[euspeclibcmpd256]", "Srxn1-GFP intensity median modified Z-score": "inactive: 1.65"}, {"smiles": "CC[C@]1(O)CC2CN(CCc3c([nH]c4ccccc34)[C@@](C(=O)OC)(c3cc4c(cc3OC)N(C)[C@H]3[C@@](O)(C(=O)OC)[C@H](OC(C)=O)[C@]5(CC)C=CCN6CC[C@]43[C@@H]65)C2)C1", "note": "(stereo partly specified) [euspeclibcmpd320]", "Srxn1-GFP intensity median modified Z-score": "active: 25.8"}, {"smiles": "CC(C(=O)O)c1ccc(CC2CCCC2=O)cc1", "note": "(stereo unspecified) [euspeclibcmpd1100]", "Srxn1-GFP intensity median modified Z-score": "inactive: 0.299"}, {"smiles": "O=C(O)CCc1nc(-c2ccccc2)c(-c2ccccc2)o1", "note": "[euspeclibcmpd734]", "Srxn1-GFP intensity median modified Z-score": "inactive: -0.241"}, {"smiles": "O=C1c2ccccc2C(=O)C1c1ccccc1", "note": "[euspeclibcmpd232]", "Srxn1-GFP intensity median modified Z-score": "inactive: -0.321"}, {"smiles": "Clc1ccc2c(c1)C(N1CCNCC1)=Nc1ccccc1O2", "note": "[euspeclibcmpd943]", "Srxn1-GFP intensity median modified Z-score": "inactive: 0.369"}, {"smiles": "OCCN1CCN(CCCN2c3ccccc3Sc3ccc(C(F)(F)F)cc32)CC1", "note": "[euspeclibcmpd361]", "Srxn1-GFP intensity median modified Z-score": "inactive: -0.0321"}, {"smiles": "CC(C)(Oc1ccc(CCNC(=O)c2ccc(Cl)cc2)cc1)C(=O)O", "note": "[euspeclibcmpd432]", "Srxn1-GFP intensity median modified Z-score": "inactive: 0.0401"}, {"smiles": "c1ccc(CC2=NCCN2)cc1", "note": "[euspeclibcmpd297]", "Srxn1-GFP intensity median modified Z-score": "inactive: 0.251"}, {"smiles": "O=C(O)c1ccccc1-c1c2cc(I)c(=O)c(I)c-2oc2c(I)c(O)c(I)cc12", "note": "[euspeclibcmpd2143]", "Srxn1-GFP intensity median modified Z-score": "inactive: 0.0355"}, {"smiles": "Cc1ccc(N(CC2=NCCN2)c2cccc(O)c2)cc1", "note": "[euspeclibcmpd340]", "Srxn1-GFP intensity median modified Z-score": "inactive: -0.737"}, {"smiles": "CNC[C@@H](O)c1ccc(O)c(O)c1", "note": "[euspeclibcmpd110]", "Srxn1-GFP intensity median modified Z-score": "inactive: -0.782"}, {"smiles": "O=C(N/N=C/c1ccc([N+](=O)[O-])o1)c1ccc(Br)cc1", "Srxn1-GFP intensity median modified Z-score": "active: 4.87"}, {"smiles": "Cc1c(Cl)cccc1Nc1ccccc1C(=O)O", "note": "[euspeclibcmpd1068]", "Srxn1-GFP intensity median modified Z-score": "active: 4.04"}, {"smiles": "CC(C(=O)O)c1cccc(Oc2ccccc2)c1", "note": "(stereo unspecified) [euspeclibcmpd369]", "Srxn1-GFP intensity median modified Z-score": "inactive: 0.111"}, {"smiles": "Oc1ccc(C2CNCCc3c2cc(O)c(O)c3Cl)cc1", "note": "(stereo unspecified) [euspeclibcmpd2419]", "Srxn1-GFP intensity median modified Z-score": "inactive: -0.876"}, {"smiles": "CCn1cc(C(=O)O)c(=O)c2cc(F)c(N3CCNCC3)nc21", "note": "[euspeclibcmpd544]", "Srxn1-GFP intensity median modified Z-score": "inactive: -0.382"}, {"smiles": "CC(=O)OCC(=O)NCCCOc1cccc(CN2CCCCC2)c1", "note": "[euspeclibcmpd469]", "Srxn1-GFP intensity median modified Z-score": "inactive: -0.0535"}, {"smiles": "C=CCc1ccc(O)c(OC)c1", "note": "[euspeclibcmpd126]", "Srxn1-GFP intensity median modified Z-score": "inactive: 1.3"}, {"smiles": "CC(CCC(=O)O)[C@H]1CCC2C3C[C@H](O)[C@@H]4C[C@H](O)CC[C@]4(C)C3CC[C@@]21C", "note": "(stereo partly specified) [euspeclibcmpd1521]", "Srxn1-GFP intensity median modified Z-score": "inactive: -0.0273"}, {"smiles": "CN(C)c1cnccn1", "note": "[euspeclibcmpd1126]", "Srxn1-GFP intensity median modified Z-score": "inactive: 0.45"}, {"smiles": "COc1cc(O)c(C(=O)C=Cc2ccc(OC)c(O)c2)c(OC)c1", "note": "[euspeclibcmpd1967]", "Srxn1-GFP intensity median modified Z-score": "active: 23.8"}, {"smiles": "C1N2CN3CN1CN(C2)C3", "note": "[euspeclibcmpd187]", "Srxn1-GFP intensity median modified Z-score": "active: 9.99"}, {"smiles": "C[Se]CC[C@H](N)C(=O)O", "note": "[euspeclibcmpd2460]", "Srxn1-GFP intensity median modified Z-score": "inactive: -0.84"}, {"smiles": "c1ccc2c(c1)CCCC2C1=NCCN1", "note": "(stereo unspecified) [euspeclibcmpd289]", "Srxn1-GFP intensity median modified Z-score": "inactive: -0.222"}, {"smiles": "Cc1ncc([N+](=O)[O-])n1C", "note": "[euspeclibcmpd1267]", "Srxn1-GFP intensity median modified Z-score": "inactive: -0.381"}]}]}
